Reference: the supplement of paper PMC11417369
Some of the results follow.

System: PfHDP1 homeodomain (GST-tagged)
Assay: gcPBM binding intensity (ln(normalized median fluorescence intensity)); higher = stronger DNA binding
Method in brief: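 DNA-binding domains from P. falciparum, fused to GST and produced in E. coli, were put on an Agilent 4 × 180k double-stranded probe array for 1 h in 1× PBS holding 1% milk, 0.2 mg/ml BSA, 0.5% salmon testes DNA and 0.03% Triton X-100. Probes were primer-extended, 36 bp long and drawn from intergenic genomic regions, with negative controls included. After Alexa488 anti-GST antibody detection and a 488 nm scan, binding intensity was set as the highest Masliner-normalised natural-log median intensity across replicate spots of either probe orientation.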

Sequence | gcPBM binding intensity (ln)
TTCCCCCCCAGACACACACACACATACATACCACAT [CACACA_site2305] | 7.98
TATACCTATAAATACACACACATATATAAATAAATA [CACACA_site6730] | 6.88
ATATATATACACAATAGTACGTGTAATATTATTATT [XGTACX_site2151] | 7.2
TCTTTTTATGTTCTAGAGCATTTTATTATTTAACAT [CACACA_negctrl_site1699] | 7.34
ATACTATTTAAATGGGTGCTAAAAATAACAAAAATT | 6.86
ATATTTTTATATGAGGTGCATATAATGACAATTAAG | 9.62
TACTATATATTATATAGTACATAAGATATACAACAT [XGTACX_site2929] | 6.64
AAGAAAATTAACCCATGTACTTATGTAGATAGCAAG [XGTACX_site1049] | 6.42
CAAAAAAAATTATACACACACACACCCATATATATA [CACACA_site1044] | 7.05
CAATATTATAGATATACACACATAATGTGTAAAAAC [CACACA_site6631] | 6.92
TAAAACTTAATATAAACACACAAAAATTAATAAATA [CACACA_site4370] | 6.48
ATATATATATATATTGCACACATATAAATATATATA [CACACA_site8167] | 10.9
TTTTTGTTTTTTTTGTGTACTTATCAAATATATATA [XGTACX_site7273] | 6.86
GAAAAATTTAATTATTGTACGTTTCATCTATATTTA [XGTACX_site414] | 6.19
TTTTTTTTTTAGAGTACACACTTTTTTACATTTATG [CACACA_site5990] | 6.42
ATTACAAATATAATATGTACTTAAATATAATTAAAA [XGTACX_site7038] | 6.22
TCTTGATCTTATATATATCTACAATATTTTATACAT [TGCATGCA_negctrl_site569] | 6.88
ATTACTAAAACAAAATGTACATATGATTTAAGAAAA [XGTACX_site5992] | 6.31
AAAAAAAAAAAGAAGGGTACATATTATATATAATAT [XGTACX_site6204] | 6.42
TATATATAAACATAATGTACATATAATAAGTAATAT [XGTACX_site497] | 6.81
AGCCCAAAAAAGTAGACATGCAAAAACTTTACAACT [TGCATGCA_site550] | 6.5
TAGAGGAATATAATATGTACATAATATAATGTATAT [XGTACX_site2838] | 6.6
AGTGAAATTTTAGTCACACAGTTTTATCTTTAAGAA [CACACA_site5202] | 5.86

Sequence | gcPBM binding intensity (ln)
TTATGTCTAATGAAATGTACATGAATAAATTAAAGT [XGTACX_site8138] | 6.96
AAAAAAATAAATAAATGTACACATATATATATATAT [XGTACX_site4350] | 9.25
ATCATTTATATTTTATGTACATATATAATTATATTT [XGTACX_site2129] | 6.91
AATTATATAAGCCACGCATGTGTGCATAAAAATACA [TGCATGCA_site114] | 10.9
AATGAGAATTTTATTACACACTTTAATATATTTTCA [CACACA_site784] | 6.33
AATTTTCAATAGTATACACACAATTCTATAAATATA [CACACA_site6650] | 6.38
CACGTGAAAATACAAGCATGCAAGCTTTTTTTTTCT [TGCATGCA_site642] | 6.06
AATTTTTTTATAGCACGTACAAAAATACAAAATACA [XGTACX_site1569] | 6.59
CTTAAAAAAATATATTGTACATATATATATACAACT [XGTACX_site1281] | 6.49
TATATTCCCATATAACGTACATATGAGACACCAACT [XGTACX_site8099] | 6.61
GATCATTCTAAATATAAACACACATAAATATATACA [CACACA_site9108] | 6.67
ATAATATAATAATATTGTACATGGTCAAATATGAAA [XGTACX_site8390] | 6.28
GTTTATATATTATAAAGTACATATGAATTTAATAAT [XGTACX_site3601] | 6.2
ATTTCAAAATATAGCTGTACAAAAAATGTAGATATA [XGTACX_site5843] | 6.29
AAAAAATAAATAAACATAAATAAATAAATAAATATA [XGTACX_negctrl_site340] | 6.27
AATTTTGTCCTATGTTGTACTATTTTGCTCTATTTT [XGTACX_site7139] | 7.39
TAACTTCAAAAATCTTGTACATAAATATATAAAACA [XGTACX_site8574] | 6.29
TTAAAATGATTGTTACTTTTTTTTCCGTTTTCTTAA [CACACA_negctrl_site1195] | 6.03
TTTCTCTCTTATAAAATACACACGAACAATCATATT [CACACA_site509] | 6.99
AAAAATGGTGTTAACACACACATATATATATATATA [CACACA_site571] | 9.38
ATAAATAGTATTATATGTACACATAATATTTATAAA [XGTACX_site4751] | 6.68
ATAGTTACACGCCAAAAAAAAAAAAAAAAAAAAAAA [CACACA_negctrl_site1133] | 6.18
CACATTTTTTAAATATTTTTCTACTCCATAATGTTT [CACACA_negctrl_site557] | 7.08

Sequence | gcPBM binding intensity (ln)
TATAATTATGATGATAGTACGTATGAGTTCAAAACA [XGTACX_site4211] | 6.46
TTAATATAGGGAAAAAAAAGAAAATCGAAAATGTGT [CACACA_negctrl_site834] | 6.75
AGACAATATTAATAAGGTACACATATATATTAAAAA [XGTACX_site6709] | 6.35
TAATTAAATAAAAAAAAATATATATATATATATATA [XGTACX_negctrl_site616] | 9.32
TTTTTTAAAAATAACTGTACAGAGGCTGTTAGGATA [XGTACX_site2521] | 6.98
TTTATATGTTTTAAGTGTACACATATAATGTATTTT [XGTACX_site3069] | 6.94
TAAGGGAGAGATTTGTATCATAAGCAACTTTCAAAA [CACACA_negctrl_site1436] | 6.54
TTATAATTAAATTTCACACAGTTCATAACATAATTA [CACACA_site5501] | 6.36
ACTTTCAACATGAAGTTGCACTTTTTTTTTTTTCTT | 6.68
AGCCCTTTTTTTTTTTAGAATATTGCATAATTATAT [XGTACX_negctrl_site546] | 7.03
GTATTGTATGGATGGGGTACTATATATATATATTTT [XGTACX_site1694] | 7.29
TATATAAATATATCCACACACATACCTATATTAATA [CACACA_site6184] | 6.51
TTTGATAATAAGATATAATACTTAAATATATATATA [GTGCAC_negctrl_site339] | 8.19
TATTTTACGCGGTTTATAATGACATGTTCTATATTT [CACACA_negctrl_site1184] | 6.65
AAATATATATTCAAAAGTACACAATTTGTTAATAAT [XGTACX_site8917] | 6.81
ATTATTAAAAATATGGGTACATATTATTGTTATATA [XGTACX_site1958] | 6.05
CACACTTGCTCCTGTTGTACATAACCATAAGCAACA [XGTACX_site2102] | 7.52
TGAATATAACAAATATGTACTTAAAATTGTTATATT [XGTACX_site5679] | 6.22
TAAAGAAATAAATACATACACACATATATATATATA [CACACA_site3363] | 9.37
AAACTTTACATTACTTGTACATATATTCTATATAAT [XGTACX_site8640] | 6.39
AAAAAAAAAAAAAAATGTACATGACATGACATGACA [XGTACX_site4020] | 6.43
TTATATTTTACAAATGCACACATAATTTTTTTTTTT [CACACA_site8890] | 9.76
TCCATATGCATGTATTGTACTGTAATATATTAAAAA [XGTACX_site472] | 6.7

Sequence | gcPBM binding intensity (ln)
AGCAGTCGACAGGACAGTACACAGTAGCCAGGAAAT [XGTACX_site4929] | 6.22
AAAAAAAAAAAAGAAACACACACATATATATATATA [CACACA_site8525] | 9.03
TAAATATATAAATACACACACACCAAAGCAATAGAT [CACACA_site5605] | 7.31
GCTTATATTAATAAGGTGCTTTTTATTTCGTGTGTA [GTGCAC_site9649] | 6.25
AATATGTACAGACATACACACATATTTATATTTATA [CACACA_site6694] | 6.41
TTATATAAAGAATGTACACACAGAAATGCACAGACA [CACACA_site5288] | 9.72
TCATAGTATAAACACACACACACACCCATATATATA [CACACA_site8512] | 7.06
AAAAATTCAATAGGACGTACTAAAACATTCATTAAT [XGTACX_site1712] | 6.54
TTATAAATAATGAGAAACATTAAATTTAATCATAAA [CACACA_negctrl_site523] | 6.4
TTTAGTGTTATAAAAAGTACATAATAATTCCTTTTC [XGTACX_site3208] | 6.04
TACTATATATATATATATATATATATATATATTTAT [GTGCAC_negctrl_site593] | 7.38
TAGTATTAAATATATACACACATATATACCTATAGA [CACACA_site5219] | 6.5
AAAATGTAATATTGGGTGCACAATAAGTTTGATGTC | 10.1
TGAAAAGATAAAAAAAGTACACACACACATATATAT [XGTACX_site6504] | 7.3
TAAAAAAATTATATTTGTACATATTAATATAGCCTT [XGTACX_site4833] | 6.2
TATTGAATAAAATGCACACGCATGCGTTATTTATTA [CACACA_site3479] | 9.41
AAACGTATTCTATAAAGTACATTATTATAGTAGACC [XGTACX_site8068] | 6.17
AGAATGGTTTATAAAGGTACGTAATTTTTAATTTTA [XGTACX_site383] | 6.02
AAAATATTTATTTTTTGTACACATAAAAACGCACTT [XGTACX_site4132] | 7.45
CATATTTTGTGAAAAAGTACATATATATATATATAT [XGTACX_site6295] | 9.38
